Results taken from the supplement of paper PMC3334620.
In all, about 33,000 sequences were measured (“E-score (-0.5 to 0.5)”: median about -0.032, highest 2% from about 0.36 on). The list shows a part of the results.

What follows are sequences tested against T1, Sko1 (UniProt Q02100) (assay: PBM E-score (8-mer binding enrichment) (E-score (-0.5 to 0.5)); higher = stronger / more preferred TF binding; most listed sequences are background and not binding sites). Conditions: protein concentration: 200 nM; construct: GST-full length.
T1 sequence: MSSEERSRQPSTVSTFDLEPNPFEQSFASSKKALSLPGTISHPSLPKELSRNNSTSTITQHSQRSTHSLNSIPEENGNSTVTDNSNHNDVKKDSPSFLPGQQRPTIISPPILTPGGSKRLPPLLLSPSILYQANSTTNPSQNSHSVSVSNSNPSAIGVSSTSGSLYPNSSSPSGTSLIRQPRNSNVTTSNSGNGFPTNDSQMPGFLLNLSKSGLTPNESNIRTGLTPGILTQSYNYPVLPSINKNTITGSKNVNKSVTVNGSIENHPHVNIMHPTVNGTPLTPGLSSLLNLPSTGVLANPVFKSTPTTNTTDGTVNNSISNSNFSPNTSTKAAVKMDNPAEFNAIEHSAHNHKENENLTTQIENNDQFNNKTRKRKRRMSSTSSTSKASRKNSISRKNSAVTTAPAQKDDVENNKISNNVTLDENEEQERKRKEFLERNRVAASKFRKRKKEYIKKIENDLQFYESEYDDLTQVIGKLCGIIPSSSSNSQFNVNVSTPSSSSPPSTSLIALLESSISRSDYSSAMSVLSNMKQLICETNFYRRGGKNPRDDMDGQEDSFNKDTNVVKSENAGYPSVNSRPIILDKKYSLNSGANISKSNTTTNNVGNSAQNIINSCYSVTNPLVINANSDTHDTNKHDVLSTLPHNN
Procedure, shortened: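 Masliner-normalised scans of fluorescent anti-GST signal were the basis for scoring. That signal came from GST-tagged yeast transcription factors applied at about 100-200 nM to double-stranded universal all-10-mer Agilent arrays on fresh or once-stripped slides. Each ungapped eight-base word, pooled with its reverse complement, received an E-score from the Universal PBM Analysis Suite.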

Sequence	PBM E-score
TGCGTACA	0.36
CTGTGGTA	-0.102
AACCTTAC	0.187
GCCAGAAA	-0.0522
CCATATAC	0.0864
CAGCAGTC	-0.247
ACACTTCT	-0.0233
AGGGCGGC	-0.324
ATTGATAG	0.119
CTATGAAA	0.0218
ATATAACA	0.177
GACACCTA	-0.0329
GTTCATAA	0.0324
AATCTACC	0.0629
GTCTGTTA	0.0537
GGGACCAC	-0.0246
AGGTACTG	-0.125
ACGGAGAT	-0.163
AAATTAAC	0.0269
AGCCGATG	-0.224
ATTAGACA	0.125
TTTCGAAA	0.124
CCTCGTTC	-0.161
TATTACGA	0.414
AATCCCAA	-0.134

Sequence	PBM E-score
ATCAAACA	0.102
ATATTGAT	0.218
CGGGGCCA	-0.238
CACACCTA	-0.0184
ACGCATAT	0.225
ACTGGCAT	-0.13
CAATTATG	0.159
CATGATAA	0.182
CGGCTCAG	-0.00571
TGTAGACA	0.16
ACGCATAG	0.102
CTCGGAAC	-0.0712
ATCGTGTA	0.0684
CTGTTCTA	-0.18
ACGCATCT	0.203
GCATGTCC	-0.216
CAGTCGCA	-0.125
ACCGAATC	-0.0827
ACAAGCGC	-0.257
CTGCCACC	-0.066
ATTTTTGA	0.208
AAGTGGTA	-0.0655
AAGAAATG	0.0342
CCTCACCA	-0.0409
AGGGCTCG	-0.162

Sequence	PBM E-score
ACCGAGGG	-0.402
CCCGGGTC	-0.204
CGGGTAAA	0.0643
AGCGCGGC	-0.21
CTACTCTA	0.161
ATTTGGTA	0.218
CGATTAAA	0.176
GATCTGAC	0.161
AGCGTTCC	-0.0745
CTATTGAG	0.0635
GATTAATC	-0.0808
CATCCTCG	-0.136
ATATTATG	0.276
GTCGCTAA	0.107
ATATGCAA	0.138
AACTATTA	0.17
CCAACGAG	-0.11
CTGGTCCC	-0.259
ACTTAATG	0.105
ATTATTTC	0.23
AGGCCGTG	-0.26
AAGTAATT	0.3
CACAACGC	0.133
CCTCCCAG	-0.256
GAATGCGA	0.0115

Sequence	PBM E-score
AGTAGCTA	0.107
CTATCCAG	-0.15
GTTTCGGA	0.0239
GGTAGCAC	-0.314
AGCATACA	0.107
CTCAAGCC	-0.143
CGGTGGAG	-0.292
GAGAGAGC	-0.214
CGGCCGAA	-0.118
AGCCTTAT	-0.105
GGGATCAA	-0.0379
GACGGACA	0.121
ATTGTCTC	0.0231
CGCCATGA	0.033
TACTGTAA	0.0851
TGAAACCA	-0.0489
CAACTCGA	0.078
AGTAGGCG	-0.194
CTATAGTA	-0.0415
ACGACTGA	0.0428
ATTTCAAA	0.136
GGTGGGAA	-0.145
CCTCCGCC	-0.271
CACGCGCA	0.154
AATAGCTG	0.0774

Sequence	PBM E-score
CGAGATGC	-0.0188
ATCCTTGA	-0.177
AATTTCCG	0.0523
ATATCAGG	0.0507
GGGACCCA	-0.357
ACCCTCAA	-0.295
AGACGTGA	0.312
AACTGAGC	-0.224
CCGATAGG	-0.14
CGTCATGC	0.469
ATCAATGG	-0.0791
AGACATGG	-0.0226
GTTTGTGA	0.174
AGGAGAAT	-0.0915
AGTTGATC	0.0555
ACTGCCAA	-0.0083
ACGAACGA	0.195
AGAATATC	-0.036
AAGGTCTC	-0.147
AACCCCTG	-0.362
TTCGCAAA	0.142
GCAACGAA	0.148
ATCTAAAC	0.0182
AATTGATG	0.217
AACAGGTT	-0.0299

Sequence	PBM E-score
AGTTCATG	-0.13
CAATCAGC	0.00606
CATGCGCC	0.0445
CCCAGCGC	-0.229
AATTGCAA	0.0646
ACCGACTG	-0.234
AACAAAAC	0.142
ATAACAGA	0.188
CAGTAGGA	-0.178
AAATCCTT	-0.118
AGGGTTGA	-0.0646
CACCGGTC	-0.344
TACCGGCA	-0.163
CTCGAATC	-0.112
CCCGGGCA	-0.386
AGACCGGG	-0.234
ACGCAAGG	0.316
CTACCTCA	-0.0201
AGCGCTAG	-0.16
CATGTCCG	-0.128
CCGGACGA	-0.204
CCTTCAGA	-0.0862
CACACGCG	0.104
GAGATTCC	-0.277
AATCTTCC	-0.236

Sequence	PBM E-score
ATGTTAGG	-0.0583
AGAAGTCT	-0.116
CCATTAGA	-0.162
ATCTAATG	0.0212
CACAAACA	0.15
CTACATTA	0.00265
AGAACACC	-0.0444
ACACAAGA	0.114
ATTACGAC	0.396
GAGTCCCA	-0.209
AGTTAGGG	-0.097
CCCGTTCC	-0.309
AAACTTAA	0.191
GACGCAGC	0.105
AATAGGAG	-0.0512
TAGAAAGA	-0.114
AGAAGCGC	-0.142
AATTGAAG	-0.0823
ACTAGGAG	-0.15
ACTCTTAC	0.138
CGGTCCGA	-0.204
AAGTGTAG	0.0389
AAAAAGTG	0.0802
ACAAGCAC	-0.0846
GTGTACGA	0.143

Sequence	PBM E-score
GCCCAGAC	-0.33
CCTGAAAA	0.0433
ATAGTGAT	0.138
CCGGTCGC	-0.241
AATAAGTA	0.139
GCGCCCTA	-0.204
AGATTTGA	0.144
AGTCTTGC	0.0878
ATCTTTCA	0.0738
AGTCCAAC	-0.152
GGGGTTCA	-0.358
AAGCCCTT	-0.126
AGGGGACG	-0.0256
CATACCCA	0.108
CTGGTTCA	-0.183
AGAACAAC	0.0231
CGACACTA	-0.0399
CATTTATA	0.206
GCCGTGGA	-0.183
CATTTGGA	-0.0269
AGAGTTCA	-0.277
CGGGGGGA	-0.383
GACCCGTC	-0.247
AGGGCTGG	-0.176
AACATATA	0.0997

Sequence	PBM E-score
CTAAGTTC	0.00137
GGAGATCC	-0.25
AATGTCTA	0.0916
TTGCAAAA	-0.0287
CACCGACC	-0.104
AATGTTAA	0.0879
ACTGCGAT	-0.0641
AGACCGCA	-0.14
CAAGCAAG	-0.141
AGCTCCAA	-0.0295
GGCCTCGA	-0.299
CCTGGCAA	-0.0805
GTCACTAA	0.228
ATTACCGC	0.044
TCAAGGGA	-0.24
AGGCGCGA	-0.243
ATCAACCC	0.117
GCTTCCCC	-0.287
TAGTCTCA	-0.0177
AAGGGTGC	-0.227
ACCCCACA	-0.176
CATTTCCG	0.0405
ACCCAGAG	-0.108
CTACGACA	0.199
CCCGCCAG	-0.198

Sequence	PBM E-score
CAAAAAGA	0.15
CGTTAGGC	-0.0977
AACCTACT	-0.0934
CTCGGAGC	-0.137
AATAAGCG	-0.117
CCCGTAGC	-0.291
CTACACAC	0.0581
AATTCACA	0.218
CAACGTTA	0.257
GACGGGGC	-0.172
CGAAGTGC	0.244
GTATTCCA	0.0354
TTACTAAA	0.249
CCTAGGCG	-0.187
GTCAGAAA	0.0323
ACACAACC	-0.169
CATGATTC	-0.0995
AATAAAAC	0.201
GGCAAGTA	-0.127
ATAATGGA	0.068
CGTGCAGC	0.0961
ACCCATTC	-0.0447
GGGGGCCA	-0.308
ATTACTAA	0.205
ACATGCTG	0.0437

Sequence	PBM E-score
ATACTATG	0.098
CCTTAACG	0.0975
CACCACCA	-0.14
AAATGCGG	-0.0861
GTTTGAAA	0.166
ACAATGTG	0.044
GCCACATA	0.0614
CGCTTACC	-0.0338
ACATGCGT	0.203
CGACGGAC	0.0805
CCATTGGA	-0.211
GATGTGTA	0.0475
CATTTCGC	0.0468
ATCAAGCG	0.137
CTTTGCGC	0.193
AAAATGAA	-0.0162
GCGCATTA	0.0455
AGATCTTA	0.0261
CTTGCGCA	0.16
GTTACTCA	0.0403
CGTGATGC	0.322
CGGGATGC	-0.329
CCGACGGC	-0.262
CGTGTCAA	-0.0341
CAGTCCCG	-0.261

Sequence	PBM E-score
GCGATTAA	0.0926
AGTAGCTG	-0.146
AACTATAT	0.199
GAGGCGTA	0.0153
CGTGCTAG	0.0781
ATCATCTG	0.179
AAGATTTC	0.0128
ACCATTTG	-0.0957
TCAGACCA	0.0857
AGCTTGAA	-0.0717
GAACTAAA	0.0781
CCTTATGA	0.143
CCTTTCAG	-0.0989
GGAGCGCA	-0.272
CAAGTTAC	0.0695
ATTTTACC	0.252
CGCTTCCA	0.0987
GTTTGGAA	0.171
ATAGGCGG	-0.16
GGACAGAC	-0.187
CGCGACAC	0.0403
AGTGCGTA	0.376
GAAGGATC	-0.223
ACCACGTA	0.441
CGAGGAAG	-0.214

Sequence	PBM E-score
CGTGAGCA	0.095
CAATACCG	-0.186
ACTTCTCA	0.0756
GACAGTGC	0.0291
AGCATGGG	-0.252
GAATGAGA	-0.0934
AATGTGCA	0.02
AAGCAAGC	-0.0806
GTAAATAC	0.265
AGTGAGCG	-0.0041
GGAGTGCA	-0.278
TTGCGAAA	0.188
AAGTTTCC	0.0349
GAAAAGTA	0.0669
AGAGCTAG	-0.0335
GTAGTCAC	0.0182
CTAGAGGA	-0.188
AAGGGGTG	-0.304
ACTTCGAT	0.0534
CGCTACTC	-0.0678
AGTGTAGC	-0.0914
GCCTGCAA	-0.179
GATCTGCC	-0.116
AAAGAATC	-0.193
ACAGCAAT	0.0932

Sequence	PBM E-score
GAGCAGCA	0.0244
CCGTTCCC	-0.329
ATACGATC	0.109
ACAAGTGG	-0.0583
CGATGAAC	-0.161
AGGCGGTC	-0.34
CCTCGCGA	-0.272
ACATGCAA	0.0849
ATCCGTAC	0.151
CTTAAACC	-0.107
GACAATCA	0.00255
CGAGTAAG	-0.143
CACGTGGC	0.318
CCTGTTTA	-0.0982
GGACCACC	-0.183
GGCCCACA	-0.117
AGCTAGTA	0.0624
CTTCAAAC	-0.0693
GCGATGAA	-0.0296
